Measured values: patent US20230322822A1, “ARYL PHOSPHOROUS OXIDE COMPOUNDS AND USE THEREOF” (Chengdu Di'ao Jiuhong Pharmaceutical Factory, priority 2020, published 2023)

Columns and labels:
Format in all cases: biochemical
Conditions in all cases: kinase
[1] = target: EGFR-Del19 (Homo sapiens, UniProt P00533); assay: Enzymatic activity test (ADP-Glo) EGFR-Del19
Experimental: (§1) • 1. […] Test information:
(§2) To assess the effect of compounds on the activity of wild-type and mutant EGFR kinases, kinase activity was tested by measuring ATP consumption in an enzymatic reaction using an ADP-Glo (Promega Corporation) kit. Samples to be tested were dissolved in DMSO and diluted in a gradient. In a microplate, an EGFR kinase, a reaction buffer (containing Tris-HCl with a pH of 7.5, MgCl2, DTT and BSA), a kinase substrate Poly(Glu4, Tyr1) and a sample (a total volume of 20 μL per well) were added per well, while a blank control (no enzyme and sample) and a negative control (no sample) were set up; incubated for 15 minutes at 23° C.; added with 5 μL of ATP, and reacted at 23° C. for 60 minutes; added with ADP-Glo Reagent, and continuously reacted for 40 minutes at room temperature to inactivate the redundant ATP; then, added with a Kinase Detection Reagent, and reacted at room temperature for 30 minutes, then the chemiluminescence intensity L of each well was measured. […] IC50 values were calculated according to the above calculation using 4Parameter Logistic Model in XLfit software. • 3.

[2] = target: EGFR-T790M/L858R (Homo sapiens (Human), UniProt P00533, L858R/T790M); assay: Enzymatic activity test (ADP-Glo) EGFR-T790M/L858R
Chain of EGFR-T790M/L858R (P00533 25-1210 T790M/L858R): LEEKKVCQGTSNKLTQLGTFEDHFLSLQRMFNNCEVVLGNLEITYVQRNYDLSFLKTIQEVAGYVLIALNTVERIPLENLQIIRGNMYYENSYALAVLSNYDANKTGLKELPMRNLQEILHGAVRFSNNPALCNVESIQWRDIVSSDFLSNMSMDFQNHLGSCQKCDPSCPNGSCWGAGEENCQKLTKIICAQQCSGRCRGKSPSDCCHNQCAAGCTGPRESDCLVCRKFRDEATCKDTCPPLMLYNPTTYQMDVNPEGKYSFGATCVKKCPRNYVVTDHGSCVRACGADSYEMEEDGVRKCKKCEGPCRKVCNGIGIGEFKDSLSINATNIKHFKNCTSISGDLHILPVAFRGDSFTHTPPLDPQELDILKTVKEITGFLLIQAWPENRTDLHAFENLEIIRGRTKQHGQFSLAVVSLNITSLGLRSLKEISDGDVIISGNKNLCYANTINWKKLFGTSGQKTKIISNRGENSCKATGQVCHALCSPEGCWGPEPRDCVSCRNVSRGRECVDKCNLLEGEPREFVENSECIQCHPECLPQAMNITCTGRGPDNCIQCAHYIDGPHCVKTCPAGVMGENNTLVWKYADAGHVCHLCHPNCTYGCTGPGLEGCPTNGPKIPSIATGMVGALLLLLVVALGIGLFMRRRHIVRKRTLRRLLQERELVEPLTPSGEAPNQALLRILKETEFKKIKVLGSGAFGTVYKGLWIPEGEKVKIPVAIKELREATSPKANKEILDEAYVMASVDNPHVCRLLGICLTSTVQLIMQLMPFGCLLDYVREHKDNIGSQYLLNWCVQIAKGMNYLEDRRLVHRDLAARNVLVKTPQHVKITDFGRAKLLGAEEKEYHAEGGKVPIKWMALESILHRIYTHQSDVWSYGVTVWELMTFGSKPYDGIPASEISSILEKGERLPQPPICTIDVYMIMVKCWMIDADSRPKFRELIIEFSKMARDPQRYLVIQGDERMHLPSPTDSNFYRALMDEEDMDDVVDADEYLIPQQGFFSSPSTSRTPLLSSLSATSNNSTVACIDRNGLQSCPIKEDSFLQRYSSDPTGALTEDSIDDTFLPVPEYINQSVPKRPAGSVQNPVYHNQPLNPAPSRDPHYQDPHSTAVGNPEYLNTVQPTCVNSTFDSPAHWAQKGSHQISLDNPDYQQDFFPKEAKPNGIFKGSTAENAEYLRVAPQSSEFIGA
Experimental: as §1, §2

[3] = target: EGFR-T790M/Del19 (Homo sapiens, UniProt P00533, T790M, form not given); assay: Enzymatic activity test (ADP-Glo) EGFR-T790M/Del19
Experimental: as §1, §2

Chain of EGFR-Del19 (P00533 25-1210 limits assumed): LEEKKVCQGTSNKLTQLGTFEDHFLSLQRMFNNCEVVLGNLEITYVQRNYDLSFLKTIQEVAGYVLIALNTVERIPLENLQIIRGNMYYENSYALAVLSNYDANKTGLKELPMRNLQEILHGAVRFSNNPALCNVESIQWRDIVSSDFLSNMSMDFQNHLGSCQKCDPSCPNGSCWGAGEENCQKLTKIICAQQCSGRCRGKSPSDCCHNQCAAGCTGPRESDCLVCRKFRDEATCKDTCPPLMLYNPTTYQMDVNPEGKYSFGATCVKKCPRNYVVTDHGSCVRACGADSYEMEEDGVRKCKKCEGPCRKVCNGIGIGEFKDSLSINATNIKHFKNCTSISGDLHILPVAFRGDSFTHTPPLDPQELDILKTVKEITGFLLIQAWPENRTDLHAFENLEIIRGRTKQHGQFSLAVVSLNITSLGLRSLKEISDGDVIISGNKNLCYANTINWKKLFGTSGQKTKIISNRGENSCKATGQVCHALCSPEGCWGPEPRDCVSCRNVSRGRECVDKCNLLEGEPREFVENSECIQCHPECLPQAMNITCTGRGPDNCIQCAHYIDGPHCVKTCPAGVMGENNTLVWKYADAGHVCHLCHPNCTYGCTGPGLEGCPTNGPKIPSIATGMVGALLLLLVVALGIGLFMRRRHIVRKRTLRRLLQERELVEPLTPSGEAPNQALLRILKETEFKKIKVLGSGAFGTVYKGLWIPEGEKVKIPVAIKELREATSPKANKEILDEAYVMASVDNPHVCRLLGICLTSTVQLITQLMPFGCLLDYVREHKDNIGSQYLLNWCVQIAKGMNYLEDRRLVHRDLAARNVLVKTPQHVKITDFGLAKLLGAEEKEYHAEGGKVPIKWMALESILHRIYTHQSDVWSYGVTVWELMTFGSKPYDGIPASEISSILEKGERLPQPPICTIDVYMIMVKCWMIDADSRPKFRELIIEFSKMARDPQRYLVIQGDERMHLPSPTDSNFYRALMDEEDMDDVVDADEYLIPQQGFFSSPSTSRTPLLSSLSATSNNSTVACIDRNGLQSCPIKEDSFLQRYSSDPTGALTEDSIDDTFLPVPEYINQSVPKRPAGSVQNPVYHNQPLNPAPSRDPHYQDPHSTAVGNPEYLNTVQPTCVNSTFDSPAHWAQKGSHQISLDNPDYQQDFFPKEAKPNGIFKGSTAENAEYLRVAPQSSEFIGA

SMILES	pIC50 [1]	pIC50 [2]	pIC50 [3]
COc1cc(N2CCC(N3CCN(C)CC3)CC2)c(C)cc1Nc1ncc(Cl)c(Nc2cccc(C)c2P(C)(C)=O)n1 [Control compound 1, reference compound]	< 6.60	–	–
COc1cc(N2CCC(N3CCN(C)CC3)CC2)c(Br)cc1Nc1ncc(Br)c(Nc2ccc(C)cc2P(C)(C)=O)n1 [Compound 32]	7.71	7.73	8.05

pIC50: −log10 of the molar value.
